Several values for one entry are separate records, joined by “and”; a condition that tells them apart may be missing. Equal entries are not always repeated. The campaign covered roughly 220,000 compounds. About 16,000 (7.3%) were called active. Inconclusive means that the source gave no clear call. Such entries were picked first, then a sample of the others. Calls follow the shape of the dose curve; as a rule, active = well fitted inhibition curve with a large enough effect (not every such curve was filed as active); inconclusive = small, poorly fitted or top-dose-only effect, or another doubt; inactive = no such curve, though single readings can be large or run the other way. Potencies of inconclusive entries are doubtful fits and often do not repeat.
Target: Aldehyde dehydrogenase 1A1 (Homo sapiens) (UniProt P00352)
Sequence of UniProt P00352 (P00352 whole entry, looked up): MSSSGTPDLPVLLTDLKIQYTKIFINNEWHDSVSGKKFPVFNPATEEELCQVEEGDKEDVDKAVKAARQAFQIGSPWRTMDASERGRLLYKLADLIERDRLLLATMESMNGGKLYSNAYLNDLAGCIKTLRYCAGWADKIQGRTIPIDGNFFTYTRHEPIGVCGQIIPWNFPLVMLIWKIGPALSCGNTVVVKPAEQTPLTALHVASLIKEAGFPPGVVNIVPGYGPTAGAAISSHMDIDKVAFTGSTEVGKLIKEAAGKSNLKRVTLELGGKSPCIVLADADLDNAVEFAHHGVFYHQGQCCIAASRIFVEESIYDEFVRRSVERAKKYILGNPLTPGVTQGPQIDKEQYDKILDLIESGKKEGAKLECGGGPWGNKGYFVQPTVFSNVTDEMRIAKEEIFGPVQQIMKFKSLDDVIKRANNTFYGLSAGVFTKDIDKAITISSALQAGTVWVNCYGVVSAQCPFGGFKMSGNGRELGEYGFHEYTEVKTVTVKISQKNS
Experiment: qHTS Assay for Inhibitors of Aldehyde Dehydrogenase 1 (ALDH1A1)
Conditions: Purified ALDH1A1, NADH fluorescence, propionaldehyde substrate; series mostly up to 75.3 µM
Potency is read from the fitted curve at half-maximal effect; tags tell the direction and shape of the fitted curve.

Q: Which Potency does the source give for `Cc1cccc(OC(=O)NCCOC(=O)N(O)c2ccc(Cl)cc2)c1` here?
A: inconclusive: 39.8 µM [inhibitor, single point]

Q: Which Potency does the source give for `Cc1ccc(C(=O)Nc2ccc(C(=O)O)cc2)cc1S(=O)(=O)NCc1ccccc1` here?
A: inactive

Q: Which Potency does the source give for `COC(=O)c1ccc(/C=C(\C#N)c2ccccn2)cc1` here?
A: inconclusive: 28.2 µM [inhibitor, single point]

Q: How did the Potency turn out when `Fc1ccc(NC(=S)Nc2cccnc2)cc1` was run?
A: inactive

Q: How did the Potency turn out when `CCCCn1c(=O)c2[nH]c(C34CC5CC(CC3C5)C4)nc2n(CCCO)c1=O` was run?
A: inactive

Q: For `CCOc1ccc(NC(=O)c2ccco2)cc1`, which Potency is on record?
A: inactive

Q: With `COc1cc(NC(=S)N2CCCC(C)C2)c(OC)cc1Cl` (configuration not stated) as the compound, how does the Potency read?
A: inconclusive: 22.4 µM [inhibitor, partial curve]

Q: `Nc1[nH]n2c(=O)cc(-c3ccccc3)nc2c1N=Nc1ccc2c(c1)OCO2` was tested. Which Potency did it give?
A: inactive

Q: Which Potency does the source give for `Cc1nc2ccccc2n1-c1ccccc1` here?
A: inactive

Q: For `O=C(CCCn1c(SCc2cccc(F)c2)nc2ccccc2c1=O)NCC1CCCO1` (configuration not stated), which Potency is on record?
A: active: 15.8 µM

Q: For `CCN1C(=O)/C(=C/N(C)C)c2ccccc21`, which Potency is on record?
A: inconclusive: 14.1 µM [inhibitor, partial curve]

Q: Which Potency does the source give for `CC1CCCN(C(=O)Cc2ccc(F)cc2)C1` (configuration not stated) here?
A: inconclusive: 39.8 µM [inhibitor, single point]

Q: For `CCCCc1ccc(NC(=O)COc2ccc(C(=O)Nc3ccccc3C)cc2)cc1`, which Potency is on record?
A: inactive

Q: Which Potency does the source give for `O=C1C=C(NCc2ccc(Cl)c(Cl)c2)C2(CCCCC2)O1` here?
A: inconclusive: 28.2 µM [inhibitor, single point]

Q: Which Potency does the source give for `CCOC(=O)Cc1csc(/N=C/c2c(O)n(-c3ccccc3C(F)(F)F)c(=O)c3ccccc23)n1` here?
A: inconclusive: 25.1 µM [inhibitor, partial curve]

Q: With `Cc1cccc(S(=O)(=O)Nc2nc3ccccc3nc2NCc2ccco2)c1` as the compound, how does the Potency read?
A: inconclusive: 28.2 µM [inhibitor, partial curve]

Q: How did the Potency turn out when `CCCCn1c(CN2CCN(c3cccc(Cl)c3)CC2)nc2c1c(=O)n(C)c(=O)n2C` was run?
A: active: 15.8 µM

Q: `CC1(C)CC(=O)C(C=Nc2cc(C(=O)c3ccccc3)ccc2N)=C(O)C1` was tested. Which Potency did it give?
A: active: 11.2 µM

Q: With `Cc1ccc(C(C#N)c2ccc(Cl)nn2)cc1` (configuration not stated) as the compound, how does the Potency read?
A: active: 8.91 µM

Q: Which Potency does the source give for `O=C(CSc1ccccc1Cl)N1CCC(c2nc3ccccc3s2)CC1` here?
A: active: 12.6 µM

Q: For `COc1ccc(NC2c3ncccc3C(=O)N2Cc2cccs2)cc1` (configuration not stated), which Potency is on record?
A: active: 3.16 µM

Q: `NC(=Nc1ccccc1)NC(=O)c1nc(Cl)c(N)nc1N` was tested. Which Potency did it give?
A: inconclusive: 17.8 µM [inhibitor, partial curve] and inconclusive: 25.1 µM [inhibitor, partial curve] and inconclusive: 39.8 µM [inhibitor, single point]

From PubChem BioAssay AID1030 (National Center for Advancing Translational Sciences (NCATS), 2008)
